In patent US20240368283A1 (published 2024):
Changes are numbered by the printed parent chain. Blank lines part the entries; values can stand above or below the binder they belong to.

Columns and labels:
human FcγRIIβ [1] = biological target: T1, human FcγRIIβ (human, UniProt P31994 46-217, limits assumed); assay: SPR, antibody captured on ProA/G HC30M chip, recombinant human FcγRIIβ injected (4 nM-5 uM); average kinetic KD
T1 construct: also called FcγRIIb; R2b
T1 sequence (looked up): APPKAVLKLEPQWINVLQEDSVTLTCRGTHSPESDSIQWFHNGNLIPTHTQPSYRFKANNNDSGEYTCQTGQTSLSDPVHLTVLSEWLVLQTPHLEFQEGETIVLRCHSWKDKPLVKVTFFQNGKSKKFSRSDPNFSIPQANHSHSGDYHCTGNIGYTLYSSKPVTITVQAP
Method: (§1) Example 52: The binding of anti-FcγRIIβ antibodies to human FcγRIIβ was evaluated. Antibodies were captured on ProA/G HC30M chip at 5 ug/mL, 1 ug/mL, and 0.2 ug/mL for 15 minutes. Six buffer injections were made over the chip followed by injections of increasing concentrations of recombinant human FcγRIIβ (4 nm-5 uM). The association was measured during each injection for 5 minutes and the dissociation was measured for 10 minutes post injection with buffer flow (1×HBSTE+ BSA).

human FcγRIIβ [2] = biological target: T1, human FcγRIIβ; assay: SPR, antibody captured on ProA/G HC30M chip, recombinant human FcγRIIβ injected (4 nM-5 uM); average steady state KD
Method: as §1

[3] = biological target: PD-1 (in the reporter cells of the PD-1 agonism assay) (Homo sapiens (Human), UniProt Q15116 25-288); assay: cell-based or functional assay
Recombinant human PD-1 = biological target: T2, Recombinant human PD-1 (human, UniProt Q15116 fragment, limits assumed); assay: BLI (Octet RED96), antibody captured on anti-human IgG Fc biosensors, PD-1 titrated; 1:1 fit
T2 construct: Soluble recombinant analyte in BLI; also called huPD1
Method: (§2) Affinity to PD-1 was measured using biolayer inferometry. Test articles were diluted in assay buffer to a final concentration of 5 μg/mL. Recombinant human PD-1 was titrated. Test articles were captured on anti-human IgG Fc biosensors. Association was performed in wells with human PD-1. Dissociation was performed in wells with assay buffer. Kinetic parameters (kon and kdis) and equilibrium dissociation constant (KD) were calculated from a 1:1 Langmuir global Rmax fit model using the data analysis software of the Octet RED96 version 10.0.

FcγRI = assay: Fc receptor affinity, Table 29 (method for Fc receptors not told in Example 43)
human FcγRIIβ [4] = biological target: T1, human FcγRIIβ; assay: as above
Cyno PD-1 [5] = biological target: T3, Cyno PD-1 (cyno); assay: BLI (Octet RED96), antibody captured on anti-human IgG Fc biosensors, PD-1 titrated; steady state (footnote *)
T3 construct: also called cynomolgus PD-1; cyPD1

human FcγRIIβ [6] = biological target: T1, human FcγRIIβ; assay: ratio of KD on FcγRIIα R131 to KD on FcγRIIβ, Table 29
Cyno PD-1 [7] = biological target: T3, Cyno PD-1; assay: BLI (Octet RED96), antibody captured on anti-human IgG Fc biosensors, PD-1 titrated; 1:1 fit
Method: as §2

FcγRI, sequence (P12314 16-292): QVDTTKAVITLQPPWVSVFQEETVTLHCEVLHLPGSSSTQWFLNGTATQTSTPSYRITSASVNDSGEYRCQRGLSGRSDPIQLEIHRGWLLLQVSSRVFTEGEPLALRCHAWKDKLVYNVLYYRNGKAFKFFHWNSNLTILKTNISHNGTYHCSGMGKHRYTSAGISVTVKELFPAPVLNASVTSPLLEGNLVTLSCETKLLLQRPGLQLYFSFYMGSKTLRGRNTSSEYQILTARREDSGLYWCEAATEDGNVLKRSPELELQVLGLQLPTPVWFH
Recombinant human PD-1, sequence (Q15116 25-170 limits assumed): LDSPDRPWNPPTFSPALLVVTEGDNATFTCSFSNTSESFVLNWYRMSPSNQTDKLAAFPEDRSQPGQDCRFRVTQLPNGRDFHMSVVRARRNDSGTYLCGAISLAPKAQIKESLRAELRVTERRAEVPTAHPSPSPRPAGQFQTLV

Kd (human FcγRIIβ [1]): 207 nM | Kd (human FcγRIIβ [2]): 180 nM
B1: ARB58 (antibody, human IgG1, kappa)
heavy: EVQLVESGGGLVQPGRSLRLSCAASGFNFGAFAMHWVRQAPGKGLEWVSAINQGGSEVDYADSVEGRFTISRDNAKNSLYLQMNSLRAEDTAVYYCARDPGLPVSAFDIWGLGTMVTVSSASTKGPSVFPLAPSSKSTSGGTAALGCLVKDYFPEPVTVSWNSGALTSGVHTFPAVLQSSGLYSLSSVVTVPSSSLGTQTYICNVNHKPSNTKVDKKV[human IgG1 Fc with L234A L235A G237A (EU numbers) left out here]
light: DIQMTQSPSSLSASVGDRVTITCRASQDISNWLAWYQQKPGKAPKLLIYDASSLVSGVPSRFSGSGSGTDFTLTISSLQPEDVATYYCHQIYDTPPTFGGGTKVEIKRTVAAPSVFIFPPSDEQLKSGTASVVCLLNNFYPREAKVQWKVDNALQSGNSQESVTEQDSKDSTYSLSSTLTLSKADYEKHKVYACEVTHQGLSSPVTKSFNRGEC
notes: copies: 2 + 2

Kd (human FcγRIIβ [1]): 3800 nM | Kd (human FcγRIIβ [2]): 3500 nM
B2: ARB67 (antibody, human IgG1, kappa)
heavy: EVQLVESGGGLVQPGRSLRLSCAASGSTLSSYGMHWVRQAPGKGLEWVSAISYDASTIDYADSVEGRFTISRDNAKNSLYLQMNSLRAEDTAVYYCASEYGLAFDQWGQGTLVTVSSASTKGPSVFPLAPSSKSTSGGTAALGCLVKDYFPEPVTVSWNSGALTSGVHTFPAVLQSSGLYSLSSVVTVPSSSLGTQTYICNVNHKPSNTKVDKKV[human IgG1 Fc with L234A L235A G237A (EU numbers) left out here]
light: DIQMTQSPSSLSASVGDRVTITCRASQGIGSYLAWYQQKPGKAPKLLIYEASRLESGVPSRFSGSGSGTDFTLTISSLQPEDVATYYCQQGYNAPITFGGGTKVEIKRTVAAPSVFIFPPSDEQLKSGTASVVCLLNNFYPREAKVQWKVDNALQSGNSQESVTEQDSKDSTYSLSSTLTLSKADYEKHKVYACEVTHQGLSSPVTKSFNRGEC
notes: copies: 2 + 2

Emax [3]: 1.8 | log EC50 [3]: -8.2 | Kd (Recombinant human PD-1): 152 nM | koff (Recombinant human PD-1): 0.011 s⁻¹ | kon (Recombinant human PD-1): 69000 M⁻¹ s⁻¹ | Affinity to RI relative to WT (FcγRI): > 10 fold lower than WT | Kd (human FcγRIIβ [4]): 2400 nM | Kd (Cyno PD-1 [5]): 737 nM | R131/2b (fold) (human FcγRIIβ [6]): 2.8 fold
B3: TA335 (antibody, human IgG1, lambda)
heavy: EVQLLESGGGLVQPGGSLRLSCAASGFTFSDYYMSWVRQAPGKGLEWVSVISNSGGSTYYTDSVKGRFTISRDNSKNTLYLQMNSLRAEDTAVYYCTKDIGMTYFDYWGQGTLVTVSS[human IgG1 constant region with G237E P238E (EU numbers) left out here]
light: QSVLTQPPSASGAPGQRVTISCSGSYSNIGNQYVSWYQQLPGTAPKLLIYLNSQRPSGVPDRFSGSKSGTSASLAISGLQSEDEADYYCAAWDDLNVWVFGGGTKLTVLGQPKAAPSVTLFPPSSEELQANKATLVCLISDFYPGAVTVAWKADSSPVKAGVETTTPSKQSNNKYAASSYLSLTPEQWKSHRSYSCQVTHEGSTVEKTVAPTECS

Emax [3]: 1.6 | log EC50 [3]: -9.8 | Kd (Cyno PD-1 [7]): 73.2 nM | koff (Cyno PD-1 [7]): 0.01 s⁻¹ | kon (Cyno PD-1 [7]): 140000 M⁻¹ s⁻¹ | Kd (Recombinant human PD-1): 7.3 nM | koff (Recombinant human PD-1): 0.00057 s⁻¹ | kon (Recombinant human PD-1): 72000 M⁻¹ s⁻¹ | Affinity to RI relative to WT (FcγRI): > 10 fold lower than WT | Kd (human FcγRIIβ [4]): 2100 nM | R131/2b (fold) (human FcγRIIβ [6]): 3.2 fold
B4: TA319 (antibody, human IgG1, lambda)
heavy: B3 heavy with G10A, L11F, M83I
light: B3 light with Q32S

Emax [3]: 1.8 | log EC50 [3]: -9.9 | Kd (Cyno PD-1 [7]): 97.9 nM | koff (Cyno PD-1 [7]): 0.0145 s⁻¹ | kon (Cyno PD-1 [7]): 148000 M⁻¹ s⁻¹ | Kd (Recombinant human PD-1): 7.5 nM | koff (Recombinant human PD-1): 0.00065 s⁻¹ | kon (Recombinant human PD-1): 86000 M⁻¹ s⁻¹ | Affinity to RI relative to WT (FcγRI): > 10 fold lower than WT | Kd (human FcγRIIβ [4]): 2300 nM | R131/2b (fold) (human FcγRIIβ [6]): 3.5 fold
B5: TA333 (antibody, human IgG1, lambda)
heavy: B3 heavy
light: B3 light with N31S, Q32S
